Results reported in the supplement of paper PMC11417369.
± gives the standard deviation of the averaged measurements. Some of the results follow.

System: PfAP2-LT AP2 domain (GST-tagged)
Assay: gcPBM binding intensity (ln(normalized median fluorescence intensity)); higher = stronger DNA binding
Summary of the method: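 Alexa488 anti-GST antibody, scanned at 488 nm, detected GST-tagged P. falciparum DNA-binding domains that had been expressed in E. coli and incubated for 1 h on an Agilent 4 × 180k array. The array carried primer-extended double-stranded 36-bp intergenic genomic probes and negative controls. Binding intensity is the highest Masliner-normalised natural-log median intensity across replicate spots of either orientation of each probe.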

Sequence | gcPBM binding intensity (ln)
CAAAGAACTTATAGGGTGCTTTACTTATAAGTAAAT [GTGCAC_site9579] | 8.6 ± 0.51
TTACTACTATATTATACACACATATATATATATATA [CACACA_site2621] | 9.385 ± 0.078
TTCTAATATTTTTGCACACTAAACAATAAATTTCCT [CACACA_site3944] | 8.87 ± 0.46
TTTATTTATGTAGATACACACCCATGTTATATGGAG [CACACA_site9144] | 8.76 ± 0.46
TGTGAATAAATAAGCACACATAAACACATATATAAA [CACACA_site6114] | 9.21 ± 0.45
TTAAAAGAAAAAATATGTACATATATTATATATATC [XGTACX_site7009] | 8.65 ± 0.38
GTTTATTCTTTTTATACACACCTTATTTGATTAACA [CACACA_site4567] | 9.03 ± 0.37
AATAATATATATATATATATATATAGATATGTATAT [GTGCAC_negctrl_site653] | 9.03 ± 0.29
AGCAAAAATTAAATAAATAAATATATATATATATAT [TGCATGCA_negctrl_site449] | 9.12 ± 0.43
AATGATGTCATAGGGGGTACACATAAATGTGAATGT [XGTACX_site6745] | 9.16 ± 0.11
GCAACATTCTAAGACACACACACACCCATATATATA [CACACA_site1053] | 9.87 ± 0.19
ATATTAATAATATATACACACATAAGTATTGTATAT [CACACA_site4095] | 8.89 ± 0.35
TCTTCTAATTTACCTACACACAGGAGATATATAAAT [CACACA_site6276] | 8.75 ± 0.37
TATATATATATATATTGTACAAAATATTTATATGTT [XGTACX_site436] | 9.12 ± 0.26
GTTCATAAATTAAACACACACACACCCCTGGATACC [CACACA_site3331] | 10.13 ± 0.085
TAATTAATTTATTAGTTGCACTGTACCATTAGAGTA | 8.59 ± 0.44
ATCAACATTATGGTTAGTACTTAGTGAATTGTTAAT [XGTACX_site4926] | 8.69 ± 0.41
GTGTAATATATTTTTCGTACATATTATATATATATA [XGTACX_site1675] | 8.86 ± 0.42
TTATACACCTTTCATTGTACATATAATTTATATTCT [XGTACX_site8685] | 8.89 ± 0.42
AATATTCAATATATATATATATATAATATTAATATA [GTGCAC_negctrl_site571] | 8.71 ± 0.34
ATATTTTATTTAATTACACACAATATTGCAATTTGT [CACACA_site669] | 9.32 ± 0.4
TAATACCATAACAAGTGTACATAAATAATTATTGTA [XGTACX_site4949] | 8.86 ± 0.38

Sequence | gcPBM binding intensity (ln)
AAGGATTTTTTATACACACACTAACTAATGTATATA [CACACA_site7163] | 9 ± 0.34
TATATTACTTTGTGTTGTACGGAAATATATATATAT [XGTACX_site4309] | 8.71 ± 0.35
AAAACTATTAAATGTAGTACATAATTATTGAAATAA [XGTACX_site8716] | 8.66 ± 0.42
AAATACATATCATGTAGTACATATATATGTAGGTTA [XGTACX_site5392] | 9.29 ± 0.28
ATAATTATTCTTATGGTGCACTGAATATACATGTTG [GTGCAC_site9760] | 8.95 ± 0.44
CAAAAATATATTTTTTGTACACAAAAAAAAAATAAA [XGTACX_site5229] | 8.53 ± 0.46
ATAGCACATTTTTAAGCACACGTTTATTATATATAT [CACACA_site6084] | 9.05 ± 0.34
TTTTTTTGCTCTTTTTATATATATATATATATATAT [GTGCAC_negctrl_site70] | 9.29 ± 0.19
TTTTTATTGAGATACTTATATAATTTTATGAATAAA [XGTACX_negctrl_site311] | 8.03 ± 0.45
TTTGAAAAGTTGAAATGTACACATTTACACATATTT [XGTACX_site1641] | 8.86 ± 0.36
TGTTGTATTTTTACAACACACATTTAATCCATTTAA [CACACA_site1507] | 8.61 ± 0.44
CTTATATATTGGGATAGTACTTTTAACTAAATAGAA [XGTACX_site5900] | 8.37 ± 0.43
ACTTTACGAATTAAGAGTACTTATTTAAGGAACACT [XGTACX_site7919] | 8.64 ± 0.37
TACACAAAAATAAACACACACACATATATATATATA [CACACA_site1000] | 9.79 ± 0.23
TATATATTCCTCCATAGTACAATAATAAAGATAAAA [XGTACX_site5785] | 8.58 ± 0.38
ACCAATTTGACAAACTGTACAAAAAAAATATTAAAA [XGTACX_site1186] | 8.59 ± 0.6
AACATTAATTTCCTATGTACTTAATATATTGTTTTT [XGTACX_site4440] | 8.83 ± 0.4
AACACCCAAAAACACACACACATACATACATACATA [CACACA_site4411] | 9.8 ± 0.23
ATTTATATATATGTATGTACGTATGTGTGTATATGT [XGTACX_site7587] | 9.36 ± 0.35
CTTTCCCTATATTGCTGTACATGTATTCAAAAAACA [XGTACX_site353] | 8.66 ± 0.37
CGCGAACATACATACACACACATATATATATCTGTA [CACACA_site4277] | 9.62 ± 0.4
TTATGTATATTATAAATTAATACCTTTAAATTAATA [CACACA_negctrl_site67] | 8.14 ± 0.48

Sequence | gcPBM binding intensity (ln)
TATAACTTATTTTTTAGTACATATTATAGTTCATTT [XGTACX_site8649] | 8.66 ± 0.49
TATATATACTTAGAAACACACAAAAATATTTTATAA [CACACA_site2578] | 8.66 ± 0.39
TAATTAGTTTTTACTTTTTTTTTTTTTTTTCTATAT [CACACA_negctrl_site1024] | 8.37 ± 0.54
ATAAAAAGCTAAAAAGTGCAAAAAGTAAATATTTAA | 8.99 ± 0.61
TTTTATAAAGAACACAGACACACAAAGAAAGAACCA [CACACA_site4174] | 9.2 ± 0.52
ATTCCTCATTAATATTCTTATTTTTTAATTCACATT [XGTACX_negctrl_site329] | 8.85 ± 0.52
TAAAAGGAGACATATACACACATATATATATATATA [CACACA_site5539] | 10 ± 0.23
TTTATTTAAAATAAGTGTACTAGAAAAATTAAGCAG [XGTACX_site4982] | 8.48 ± 0.42
TGTGATTATGATAAAAGTACAGAAATAAATATACTA [XGTACX_site38] | 8.64 ± 0.5
CTTAAACTTTTAAATACACACATACAGACATACACA [CACACA_site6401] | 9.11 ± 0.26
TACATATATATAATATATATATCATCATATTTTCTT [XGTACX_negctrl_site478] | 8.73 ± 0.58
TAAAAATGATCAAAGGGTACAGTATTAATTAAAAAA [XGTACX_site1079] | 8.63 ± 0.54
TTTACTTTTTTTATATATTATTTATTATATAATATA [CACACA_negctrl_site211] | 8.49 ± 0.5
AATATACGATTGTCATTCATACATTGTTAACATAGT [CACACA_negctrl_site1151] | 8.89 ± 0.39
ATATACAGAAAAAATTAAAATAAATATGCAAAACAA [CACACA_negctrl_site704] | 8.85 ± 0.47
ACATAGTAAATATTATGTACATAATATATACATTTA [XGTACX_site7500] | 8.71 ± 0.36
TACAATGAACATGAAACACACAAAAAAAAAAAAAAA [CACACA_site1544] | 8.88 ± 0.54
ATAATAAATACACTAGTGCAAAATAATATATGTACT [GTGCAC_site9707] | 9.21 ± 0.4
TATTTAGACATAACAAATAGACTAACAAAAGATTTA [GTGCAC_negctrl_site614] | 8.54 ± 0.39
TATTATAAATAAATAGAAAAAAAAATGATAAATGGA [CACACA_negctrl_site865] | 8.48 ± 0.53
ATATGTACTATACGCACACACACTCACATATTTATA [CACACA_site7510] | 9.73 ± 0.25
TTTATTTATATAATTACACACATATATACTCAAATG [CACACA_site5543] | 8.86 ± 0.44

Sequence | gcPBM binding intensity (ln)
ATAGGGTTTCTACTTTAACATTTTTGAAATATTATA [GTGCAC_negctrl_site260] | 8.43 ± 0.42
AATATATACACATGCGCACACACAAGTGGGAAATTT [CACACA_site8527] | 9.57 ± 0.33
ATCACTAATTTTTTTACACACCACAATTTAATTTTT [CACACA_site1186] | 9.06 ± 0.4
AAATGTGTTAATGTGCGTACACATATATATAATATT [XGTACX_site2792] | 8.97 ± 0.38
TTTTGCCTGAACAATGCATGTTATTTTTATTTTTTT [TGCATGCA_site673] | 8.82 ± 0.38
TCATTTAAGTCATATTGAAATATGCATTATTCAAAA [CACACA_negctrl_site958] | 8.34 ± 0.36
TTTTTTTTTTTTTTTTTTATATTTCATAATTTCATT [XGTACX_negctrl_site579] | 8.27 ± 0.62
TTTATATTTCATTTGTTATTTTTCTTGGTTCTATAT [TGCATGCA_negctrl_site23] | 8.85 ± 0.49
GCACCAAAAAAAAGACGTACAGTTATATTAAAATAG [XGTACX_site8926] | 8.84 ± 0.47
AAATGAACAAGTGGCACACACACATTCTAACTAATT [CACACA_site3203] | 9.52 ± 0.44
AACCAAATTTCACCATGTACATATTGATAAATATAT [XGTACX_site1374] | 8.82 ± 0.34
ATATGATTTGGATGTAGTACATATTTTTTTATGTTT [XGTACX_site1929] | 8.8 ± 0.5
ACCTTTAATAAATACACACACATAAAAAAAATATAT [CACACA_site5086] | 9.37 ± 0.41
TAATGTATTATTTAATGTACTTAAAAAATAAATAAA [XGTACX_site3296] | 8.23 ± 0.47
AATGAACAGACGAGCACACACACACCCATATATATA [CACACA_site1018] | 10.1 ± 0.16
TATTATATGAATAATTGTACGAAATTTAAAAGACAA [XGTACX_site7558] | 8.58 ± 0.44
GGGGAGCTATCTCCTGCACACACAATTTTTTTTTTT [CACACA_site8703] | 9.1 ± 0.4
CACAAATATATACATACACACATATATACGCATATA [CACACA_site395] | 9.31 ± 0.38
TTATAAAGAAAAAATTGCTTTAAAAGAAAGATTACA [CACACA_negctrl_site960] | 8.14 ± 0.57
AAAAACAAAATTTGGAGTACAGTTATAATATTATTA [XGTACX_site5245] | 8.62 ± 0.43
ATATATATATGAATCACACACAAAAAATATAGAGAT [CACACA_site3913] | 9.51 ± 0.41
AATGAAAAGAAATAATAAATAAATGATGACCAGCTG [GTGCAC_negctrl_site398] | 8.84 ± 0.39
